The supplement of paper PMC4967469
The IC50 comes from the fitted curve, where viability falls to half of the control; a limit (>, <) means that the fit lies beyond the doses tested. AUC sums up the same curve from the lowest dose to the 256-fold higher top dose; values near 1 show little effect. For some assays here: An inferred top dose was derived from the fitted curves, not read from the paper. For some assays here: Where an entry number is given, a second screen of the drug exists; the two often differ.

Experiments:
Test in all cases: Viability of human cancer cell lines after 72 h of drug (GDSC screen)
YM155 = compound: COCC[n+]1c2c(n(Cc3cnccn3)c1C)C(=O)c1ccccc1C2=O [YM155]; conditions: top dose 5.12 µM
Method: (§1)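 Human cancer cell lines in 384-well plates, medium with 10% serum, drug for 72 h over a 256-fold dose range (nine 2-fold or five 4-fold steps up to the top dose). Adherent lines were fixed and stained with the nucleic acid dye Syto60, suspension lines read with resazurin; signal relative to control wells, capped at 0 and 100%. One two-parameter sigmoid per drug and line, fitted in a mixed model over all curves with the slope shared within a line.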

NSC-207895 = compound: CN1CCN(c2ccc([N+](=O)[O-])c3no[n+]([O-])c23)CC1 [NSC-207895]; conditions: top dose 20 µM; top dose inferred
Method: as §1

JNJ-26854165 = compound: c1ccc2c(CCNc3ccc(Nc4ccncc4)cc3)c[nH]c2c1 [JNJ-26854165]; conditions: top dose 10 µM
Method: as §1

SB-715992 = compound: Cc1ccc(C(=O)N(CCCN)[C@@H](c2nc3cc(Cl)ccc3c(=O)n2Cc2ccccc2)C(C)C)cc1 [SB-715992]; conditions: top dose 0.128 µM; top dose inferred
Method: as §1

JNK Inhibitor VIII = compound: CCOc1nc(NC(=O)Cc2cc(OC)ccc2OC)cc(N)c1C#N [JNK Inhibitor VIII]; conditions: top dose 10 µM; top dose inferred
Method: as §1

AMG-706 = compound: CC1(C)CNc2cc(NC(=O)c3cccnc3NCc3ccncc3)ccc21 [AMG-706]; conditions: top dose 2 µM; top dose inferred
Method: as §1

JQ1 = compound: Cc1sc2c(c1C)C(c1ccc(Cl)cc1)=N[C@@H](CC(=O)OC(C)(C)C)c1nnc(C)n1-2 [JQ1]
Method: as §1

Belinostat = compound: O=C(/C=C/c1cccc(S(=O)(=O)Nc2ccccc2)c1)NO [Belinostat]; conditions: top dose 20 µM; top dose inferred
Method: as §1

Docetaxel = compound: CC(=O)O[C@@]12CO[C@@H]1C[C@H](O)[C@@]1(C)C(=O)[C@H](O)C3=C(C)[C@@H](OC(=O)[C@H](O)[C@@H](NC(=O)OC(C)(C)C)c4ccccc4)C[C@@](O)([C@@H](OC(=O)c4ccccc4)[C@H]21)C3(C)C [Docetaxel]; conditions: top dose 0.0125 µM
Method: as §1

FTI-277 = compound: COC(=O)[C@H](CCSC)NC(=O)c1ccc(NC[C@@H](N)CS)cc1-c1ccccc1 [FTI-277]; conditions: top dose 1.024 µM; top dose inferred
Method: as §1

[1] = top dose 1 µM, screen: GDSC drug entry 1218, top dose inferred
[2] = top dose 2.56 µM, screen: GDSC drug entry 163

Cell Line	AUC (YM155)	IC50 (YM155) [µM]	AUC (NSC-207895)	IC50 (NSC-207895) [µM]	AUC (JNJ-26854165)	IC50 (JNJ-26854165) [µM]	AUC (SB-715992)	IC50 (SB-715992) [µM]	AUC (JNK Inhibitor VIII)	IC50 (JNK Inhibitor VIII) [µM]	AUC (AMG-706)	IC50 (AMG-706) [µM]	AUC (JQ1; [1])	IC50 (JQ1; [1]) [µM]	AUC (Belinostat)	IC50 (Belinostat) [µM]	AUC (Docetaxel)	IC50 (Docetaxel) [µM]	AUC (FTI-277)	IC50 (FTI-277) [µM]	AUC (JQ1; [2])	IC50 (JQ1; [2]) [µM]
SNU-C5 (large intestine, adherent)	0.051	< 0.02	0.873	> 20	0.964	> 10	0.967	> 0.128	0.986	> 10	0.98	> 2	0.984	> 1	0.494	1.2	0.7	0.00304	–	–	–	–
PEO1 (ovary, adherent)	0.047	< 0.02	0.811	11.1	0.959	> 10	0.87	0.127	0.959	> 10	0.948	> 2	0.985	> 1	0.412	0.712	0.851	0.0102	–	–	–	–
SK-GT-4 (oesophagus, adherent)	0.039	< 0.02	0.881	> 20	0.849	> 10	0.887	> 0.128	0.974	> 10	0.952	> 2	0.971	> 1	0.363	0.475	0.634	0.002	–	–	–	–
RCC-JF (kidney, adherent)	0.032	< 0.02	0.77	8.56	0.76	3.94	0.754	0.048	0.945	> 10	0.955	> 2	0.981	> 1	0.33	0.395	0.7	0.00309	–	–	–	–
DOV13 (ovary, adherent)	0.616	0.702	0.962	> 20	0.873	> 10	0.981	> 0.128	0.954	> 10	0.964	> 2	0.953	> 1	0.984	> 20	0.661	0.00236	–	–	–	–
OVKATE (ovary, adherent)	0.193	< 0.02	0.831	> 20	0.947	> 10	0.979	> 0.128	0.978	> 10	0.979	> 2	0.977	> 1	0.451	0.838	0.965	> 0.0125	0.979	> 1.02	0.96	> 2.56
FLO-1 (oesophagus, adherent)	0.043	< 0.02	0.804	15.9	0.868	> 10	0.829	> 0.128	0.955	> 10	0.894	> 2	0.973	> 1	0.53	1.56	0.491	0.000732	–	–	–	–
KYAE-1 (oesophagus, suspension)	0.099	< 0.02	0.819	13	0.86	9.93	0.974	> 0.128	0.964	> 10	0.98	> 2	0.974	> 1	0.389	0.597	0.915	> 0.0125	–	–	–	–
RCC-FG2 (kidney, adherent)	0.363	0.121	0.982	> 20	0.753	4.18	0.923	> 0.128	0.875	> 10	0.872	> 2	0.976	> 1	0.475	1.05	0.978	> 0.0125	–	–	–	–
TE-4 (oesophagus, adherent)	0.28	0.0762	0.987	> 20	0.887	> 10	0.965	> 0.128	0.983	> 10	0.971	> 2	0.982	> 1	0.413	0.723	0.586	0.00134	–	–	–	–
SK-MEL-5 (melanoma, adherent)	0.796	3.02	0.981	> 20	0.856	> 10	0.966	> 0.128	0.97	> 10	0.961	> 2	0.979	> 1	0.971	> 20	0.674	0.00268	–	–	–	–
NCC021 (kidney, adherent)	0.301	0.0794	0.925	> 20	0.928	> 10	0.981	> 0.128	0.969	> 10	0.942	> 2	0.981	> 1	0.355	0.461	0.907	> 0.0125	–	–	–	–
CFPAC-1 (pancreas, adherent)	–	–	0.953	> 20	–	–	0.959	> 0.128	0.968	> 10	0.951	> 2	0.982	> 1	0.915	> 20	0.794	0.00671	0.95	> 1.02	0.652	0.45
A431 (skin, adherent)	0.023	< 0.02	0.845	13.6	0.91	> 10	0.692	0.0268	0.988	> 10	0.987	> 2	0.978	> 1	0.255	0.258	0.53	0.000937	0.987	> 1.02	0.602	0.301
SK-MG-1 (glioma, adherent)	0.027	< 0.02	0.697	4.49	0.855	8.13	0.919	> 0.128	0.978	> 10	0.964	> 2	0.966	> 1	0.459	0.965	0.653	0.00209	–	–	–	–
OC-314 (ovary, adherent)	0.018	< 0.02	0.645	2.95	0.884	8.18	0.737	0.0336	0.981	> 10	0.982	> 2	0.99	> 1	0.49	1.18	0.743	0.00341	–	–	–	–
KMS-11 (myeloma, suspension)	0.046	< 0.02	0.808	8.59	0.985	> 10	0.788	0.0474	0.984	> 10	0.977	> 2	0.782	0.355	0.229	0.237	0.968	> 0.0125	–	–	–	–
QGP-1 (pancreas, adherent)	0.07	< 0.02	0.858	> 20	0.973	> 10	0.942	> 0.128	0.965	> 10	0.954	> 2	0.966	> 1	0.442	0.787	0.91	> 0.0125	–	–	–	–
OACM5-1 (oesophagus, semi-adherent)	0.053	< 0.02	0.825	14.1	0.972	> 10	0.616	0.0174	0.968	> 10	0.978	> 2	0.982	> 1	0.371	0.525	0.98	> 0.0125	–	–	–	–
OVCA420 (ovary, adherent)	0.215	0.034	0.76	9.29	0.952	> 10	0.971	> 0.128	0.981	> 10	0.982	> 2	0.933	> 1	0.46	0.935	0.954	> 0.0125	–	–	–	–
OVCA433 (ovary, adherent)	0.032	< 0.02	0.857	19.3	0.964	> 10	0.972	> 0.128	0.981	> 10	0.983	> 2	0.982	> 1	0.533	1.56	0.692	0.00288	–	–	–	–
SNU-61 (large intestine, adherent)	0.056	< 0.02	0.767	9.85	0.97	> 10	0.95	> 0.128	0.98	> 10	0.976	> 2	0.958	> 1	0.29	0.261	0.968	> 0.0125	–	–	–	–
RCC-AB (kidney, adherent)	0.049	< 0.02	0.831	18.3	0.928	> 10	0.733	0.0459	0.96	> 10	0.945	> 2	0.977	> 1	0.245	0.18	0.842	> 0.0125	–	–	–	–
RCC-ER (kidney, adherent)	0.899	> 5.12	0.975	> 20	0.807	5.9	0.972	> 0.128	0.908	> 10	0.88	> 2	0.957	> 1	0.907	> 20	0.937	> 0.0125	–	–	–	–
JHOS-3 (ovary, adherent)	0.074	< 0.02	0.902	> 20	0.91	> 10	0.978	> 0.128	0.953	> 10	0.965	> 2	0.979	> 1	0.817	15.3	0.916	> 0.0125	–	–	–	–
D-566MG (glioma, adherent)	0.03	< 0.02	0.829	12.2	0.799	4.72	0.987	> 0.128	0.979	> 10	0.982	> 2	0.972	> 1	0.367	0.539	0.348	0.000299	–	–	–	–
D-423MG (glioma, adherent)	0.033	< 0.02	0.732	6.74	0.892	> 10	0.903	> 0.128	0.957	> 10	0.981	> 2	0.978	> 1	0.384	0.557	0.603	0.0016	–	–	–	–
Hey (ovary, adherent)	0.031	< 0.02	0.838	12.4	0.851	6.98	0.965	> 0.128	0.948	> 10	0.958	> 2	0.949	> 1	0.343	0.471	0.61	0.00154	–	–	–	–
SNU-81 (large intestine, adherent)	0.744	2.08	0.912	> 20	0.928	> 10	0.827	0.118	0.982	> 10	0.982	> 2	0.98	> 1	0.977	> 20	0.873	> 0.0125	–	–	–	–
